For experiment [1], the target named is T1, SARS-CoV-2 (BA.5) Spike RBD (SARS-CoV-2 BA.5 strain).
T1 construct: domain: RBD; also called BA.5 RBD
Put plainly: ELISA on plate-coated RBD (1 µg/mL), HRP anti-human Fc detection, OD450.

For experiment [2], the target named is T2, RBD of the S protein of the BA.2.12.1 strain (SARS-CoV-2 BA.2.12.1 strain).
T2 construct: domain: RBD; also called BA.2.12.1 RBD
Described as above.

Experiment [3] concerns the target T3, RBD of the S protein of the BA.1.1 strain (SARS-CoV-2 BA.1.1 strain).
T3 construct: domain: RBD; also called BA.1.1 RBD
The description is as above.

The target in experiment [4] is T4, SARS-CoV-2 BQ.1.1 (Omicron) Spike RBD (SARS-CoV-2 BQ.1.1 strain).
T4 construct: domain: RBD; also called BQ.1.1 RBD
The description is as above.

The target in experiment [5] is S protein of the SARS-CoV-2 BA.3 strain on pseudo-virus (SARS-CoV-2 BA.3 strain). Put plainly: cell-based or functional assay.
In experiment [6] the target is T5, S protein of the SARS-CoV-2 BA.2.75 strain on pseudo-virus (SARS-CoV-2 BA.2.75 strain). Put plainly: cell-based or functional assay.
Experiment [7] has as its target T6, S protein of the SARS-CoV-2 BF.7 strain on pseudo-virus (SARS-CoV-2 BF.7 strain). Kind of experiment: cell-based or functional assay.
In experiment [8] the target is S protein of the SARS-CoV-2 BA.2 strain on pseudo-virus (SARS-CoV-2 BA.2 strain). Kind of experiment: cell-based or functional assay.
Experiment [9] addresses S protein of the SARS-CoV-2 XBB.1.16 strain on pseudo-virus (SARS-CoV-2 XBB.1.16 strain). Kind of experiment: cell-based or functional assay.
Experiment [10] has as its target T7, S protein of the SARS-CoV-2 BQ.1 strain on pseudo-virus (SARS-CoV-2 BQ.1 strain). Put plainly: cell-based or functional assay.
Experiment [11] addresses T8, S protein of the SARS-CoV-2 BA.4/5 strains on pseudo-virus (SARS-CoV-2 BA.4/5 strain). Put plainly: cell-based or functional assay.
For experiment [12], the target named is T9, S protein of the SARS-CoV-2 BA.1 strain on pseudo-virus (SARS-CoV-2 BA.1 strain). Put plainly: cell-based or functional assay.
Experiment [13] addresses T10, S protein of the SARS-CoV-2 XBB strain on pseudo-virus (SARS-CoV-2 XBB strain). Put plainly: cell-based or functional assay.
Experiment [14] addresses T11, S protein of the SARS-CoV-2 XBB.1.5 strain on pseudo-virus (SARS-CoV-2 XBB.1.5 strain). Put plainly: cell-based or functional assay.
For experiment [15], the target named is T12, S protein of the SARS-CoV-2 BQ.1.1 strain on pseudo-virus (SARS-CoV-2 BQ.1.1 strain). Kind of experiment: cell-based or functional assay.
Experiment [16] deals with S protein of the SARS-CoV-2 BA.1.1 strain on pseudo-virus (SARS-CoV-2 BA.1.1 strain). Kind of experiment: cell-based or functional assay.
The target in experiment [17] is T13, SARS-CoV-2 (BF.7) Spike RBD (SARS-CoV-2 BF.7 strain).
T13 construct: domain: RBD; also called BF.7 RBD
Put plainly: ELISA on plate-coated RBD (1 µg/mL), HRP anti-human Fc detection, OD450.

The target of experiment [18] is T14, SARS-CoV-2 XBB (Omicron) Spike RBD (SARS-CoV-2 XBB strain).
T14 construct: domain: RBD; also called XBB RBD
Put plainly: SPR, Biacore 8K; antibody captured on Protein A chip, RBD as analyte.

The target of experiment [19] is T1, SARS-CoV-2 (BA.5) Spike RBD. Described as above.
The target of experiment [20] is T4, SARS-CoV-2 BQ.1.1 (Omicron) Spike RBD. The description is as above.
In experiment [21] the target is T13, SARS-CoV-2 (BF.7) Spike RBD. The experiment is described as above.
Experiment [22] addresses T5, S protein of the SARS-CoV-2 BA.2.75 …. Kind of experiment: cell-based or functional assay. This is another data set of the same source.
Experiment [23] concerns the target T6, S protein of the SARS-CoV-2 BF.7 strain …. Put plainly: cell-based or functional assay. The source holds these as a separate data set.
In experiment [24] the target is S protein of the SARS-CoV-2 Delta strain on pseudo-virus (SARS-CoV-2 Delta strain). Kind of experiment: cell-based or functional assay.
Experiment [25] concerns the target T7, S protein of the SARS-CoV-2 BQ.1 strain …. Kind of experiment: cell-based or functional assay. This is another data set of the same source.
Experiment [26] deals with T8, S protein of the SARS-CoV-2 BA.4/5 …. Kind of experiment: cell-based or functional assay. This is another data set of the same source.
The target of experiment [27] is T9, S protein of the SARS-CoV-2 BA.1 strain …. Kind of experiment: cell-based or functional assay. This is another data set of the same source.
Experiment [28] concerns the target T10, S protein of the SARS-CoV-2 XBB strain …. Kind of experiment: cell-based or functional assay. The source holds these as a separate data set.
The target of experiment [29] is T11, S protein of the SARS-CoV-2 XBB.1.5 …. Put plainly: cell-based or functional assay. The source holds these as a separate data set.
The target of experiment [30] is T12, S protein of the SARS-CoV-2 BQ.1.1 …. Kind of experiment: cell-based or functional assay. The source holds these as a separate data set.

B1: bispecific antibody protein DIA-21 (bispecific antibody)
chain: EVQLVESGGGVVQPGGSLRLSCAVSGFTFDDYAMHWVRQAPGKGLDWVSLISGDGSYTYYADSVKGRFTISRDSSKNSLYLQMNSLRTEDTALYYCAKAQTPTLWWLQDAFDIWGQGTMVTVSSGGGGSGGGGSEIVLTQSPGTLSLSPGERATLSCRASQSFDSRYLGWYQQKSGQAPRLLIYGASSRATGIPDRFSGSGSGTDFTLTISRLEPEDFAVYYCQQFGDSPFTFGQGTKLEIKGGGGSGGGGSGGGGSGGGGSGGGGSQITLKESGPTLVKPTQTLTLTCTFSGFSLSTSGVGVAWIRQPPGKALEWLALIYWDNDKRSSPSLNNRLTITKDTSKNQVVLTMTNMDPEDTATYYCAHFFSHYDSSNYYYGSWFDPWGQGTLVTVSSGGGGSGGGGS[letters of about 100 residues omitted]FTFGPGTKVDIKGGGGS[letters of human IgG1 Fc with changes omitted]
Consider B1, for which the EC50 turned out to be 75 pM in experiment [1], 48.3 pM in experiment [2] and 37.6 pM in [3].

B2: bispecific antibody protein DIA-19 (bispecific antibody)
chain: QITLKESGPTLVKPTQTLTLTCTFSGFSLSTSGVGVAWIRQPPGKALEWLALIYWDNDKRSSPSLNNRLTITKDTSKNQVVLTMTNMDPEDTATYYCAHFFSHYDSSNYYYGSWFDPWGQGTLVTVSSGGGGSGGGGS[letters of about 100 residues omitted]FTFGPGTKVDIKGGGGSGGGGSGGGGSGGGGSGGGGSEVQLVESGGGVVQPGGSLRLSCAVSGFTFDDYAMHWVRQAPGKGLDWVSLISGDGSYTYYADSVKGRFTISRDSSKNSLYLQMNSLRTEDTALYYCAKAQTPTLWWLQDAFDIWGQGTMVTVSSGGGGSGGGGSEIVLTQSPGTLSLSPGERATLSCRASQSFDSRYLGWYQQKSGQAPRLLIYGASSRATGIPDRFSGSGSGTDFTLTISRLEPEDFAVYYCQQFGDSPFTFGQGTKLEIKGGGGS[letters of human IgG1 Fc with changes omitted]
Consider B2, for which the EC50 turned out to be 84.2 pM in experiment [1]; 144 pM in experiment [4]; 60.6 pM in [2]; 100 pM in experiment [17]; 10.4 pM in experiment [3]. Further, the “Neutralization Effects (IC50) against SARS-CoV-2 pseudo-viruses” value worked out at 0.311 ng/mL in experiment [5]; 1.01 ng/mL in experiment [6]; 0.451 ng/mL in experiment [7]; 0.377 ng/mL in experiment [8]; 0.72 ng/mL in [9]; 3.14 ng/mL in experiment [10]. Further, the “Neutralization Effects (IC50) against SARS-CoV-2 pseudo-viruses” value in experiment [11] is 0.332 ng/mL; in experiment [12] it was 0.272 ng/mL; in experiment [13], 0.652 ng/mL; in [14], 0.899 ng/mL; in [15] it was 7.51 ng/mL; in [16], 0.182 ng/mL. In addition, the Kd in experiment [18] was 81.1 pM; in [19], 35.9 pM; in [20], 203 pM; in [21], 45 pM. Besides, the koff was found to be 0.000535 s⁻¹ in experiment [18], 6.06e-05 s⁻¹ in experiment [19], 0.000222 s⁻¹ in [20] and 5.95e-05 s⁻¹ in experiment [21]. Besides, the kon turned out to be 6.59e+06 M⁻¹ s⁻¹ in experiment [18], 1.69e+06 M⁻¹ s⁻¹ in experiment [19], 1.09e+06 M⁻¹ s⁻¹ in experiment [20] and 1.32e+06 M⁻¹ s⁻¹ in experiment [21]. Besides, the “Neutralization activity (IC50) against pseudo-virus” value in experiment [22] turned out to be 1.76 ng/mL; in [23], 1.19 ng/mL; in [24] it was 1.34 ng/mL; in [25] it was 6.82 ng/mL; in experiment [26], 0.859 ng/mL; in experiment [27], 0.423 ng/mL. Moreover, the “Neutralization activity (IC50) against pseudo-virus” value stood at 1.94 ng/mL in [28], 1.66 ng/mL in [29] and 46.6 ng/mL in experiment [30].

B3: bispecific antibody protein DIA-20 (bispecific antibody)
chain: EIVLTQSPGTLSLSPGERATLSCRASQSFDSRYLGWYQQKSGQAPRLLIYGASSRATGIPDRFSGSGSGTDFTLTISRLEPEDFAVYYCQQFGDSPFTFGQGTKLEIKGGGGSGGGGSEVQLVESGGGVVQPGGSLRLSCAVSGFTFDDYAMHWVRQAPGKGLDWVSLISGDGSYTYYADSVKGRFTISRDSSKNSLYLQMNSLRTEDTALYYCAKAQTPTLWWLQDAFDIWGQGTMVTVSSGGGGSGGGGSGGGGSGGGGSGGGGS[letters of about 100 residues omitted]FTFGPGTKVDIKGGGGSGGGGSQITLKESGPTLVKPTQTLTLTCTFSGFSLSTSGVGVAWIRQPPGKALEWLALIYWDNDKRSSPSLNNRLTITKDTSKNQVVLTMTNMDPEDTATYYCAHFFSHYDSSNYYYGSWFDPWGQGTLVTVSSGGGGS[letters of human IgG1 Fc with changes omitted]
As for B3, the figures for the 50% effective concentration (EC50) in [1], in [2] and in experiment [3] were 84.3 pM, 47.6 pM and 34.3 pM, respectively.

B4: bispecific antibody protein DIA-22 (bispecific antibody)
chain: [letters of about 100 residues omitted]FTFGPGTKVDIKGGGGSGGGGSQITLKESGPTLVKPTQTLTLTCTFSGFSLSTSGVGVAWIRQPPGKALEWLALIYWDNDKRSSPSLNNRLTITKDTSKNQVVLTMTNMDPEDTATYYCAHFFSHYDSSNYYYGSWFDPWGQGTLVTVSSGGGGSGGGGSGGGGSGGGGSGGGGSEIVLTQSPGTLSLSPGERATLSCRASQSFDSRYLGWYQQKSGQAPRLLIYGASSRATGIPDRFSGSGSGTDFTLTISRLEPEDFAVYYCQQFGDSPFTFGQGTKLEIKGGGGSGGGGSEVQLVESGGGVVQPGGSLRLSCAVSGFTFDDYAMHWVRQAPGKGLDWVSLISGDGSYTYYADSVKGRFTISRDSSKNSLYLQMNSLRTEDTALYYCAKAQTPTLWWLQDAFDIWGQGTMVTVSSGGGGS[letters of human IgG1 Fc with changes omitted]
Take B4: the results for the EC50 in experiment [1], in experiment [2] and in experiment [3] were 153 pM, 48.4 pM and 31.2 pM, respectively.

The values above are taken from patent US20260242448A1 (INSTITUTE OF MICROBIOLOGY CHINESE ACADEMY OF SCIENCES, published 2026).
